# Source: PubChem BioAssay AID686970 (National Center for Advancing Translational Sciences (NCATS), 2013)
# The whole screen tested about 360,000 compounds, of which about 6,000 (1.7%) were called active. The inconclusive results got no clear call from the source; some entries with a clear call stand among them for comparison. Calls follow the shape of the dose curve; as a rule, active = well fitted cell-killing curve with a large enough effect; inconclusive = small, poorly fitted or top-dose-only effect, or effect the other way; inactive = flat fitted curve, though single readings scatter. No potency is given beside an inconclusive call; the fits are too rough.
# Assay: qHTS for induction of synthetic lethality in tumor cells producing 2HG: qHTS for the HT-1080-NT fibrosarcoma cell line;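 also: NT is the 2HG producing partner of a matched IDH1 knockdown line; nearly all actives have a fitted effect of over 55% in size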;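 as to activity, negative = less viability: 0% = DMSO-treated cells and -100% = media-only wells without cells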
# Details: HT-1080-NT fibrosarcoma viability, CellTiter-Glo ATP luminescence, 48 h; activity, negative = less viability: at 46.1 µM (top of the series) unless noted
# How it was run: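 Luminescent CellTiter-Glo readout after 48 hours of compound exposure at 37 degrees C defined viability of HT-1080-NT cells. Activity was normalized to DMSO wells and cell-free media wells; concentration-response curves were fitted and assigned curve classes.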
# Potency is read from the fitted curve at half-maximal effect; tags tell the direction and shape of the fitted curve.
Compound,Potency,"activity, negative = less viability"
COc1ccc(-c2cc(NC(C)=O)c3ncc(-c4ccc(OC)c(OC)c4)n3c2)cc1OC,"inconclusive [cytotoxic, single point]",
CC(=O)Nc1cccc(-c2ccnc3c2CC(C)(C(=O)Nc2ccc(Cl)cc2)O3)c1 (stereo unspecified),active: 9.2 µM,
Nc1nsc2ccccc12,active: 2.51 µM,
CC[n+]1c(/C=C/Nc2ccccc2)oc2ccc(OC)cc21,inactive,
N#Cc1cc(-c2ccccc2)nnc1Oc1ccccc1Cl,"inconclusive [cytotoxic, partial curve]",
Cc1ccc(CN2C(=O)C(CC(C)C)Nc3ncnc(N4CCN(c5ccccn5)CC4)c32)cc1 (stereo unspecified),"inconclusive [cytotoxic, single point]",
COc1ccc(OC)c(S(=O)(=O)Nc2ccccc2C)c1,,inconclusive: 0.68% [cytotoxic]
CC(C)CC1C(=O)N(Cc2cn(CCC3OCCO3)nn2)CCS(=O)(=O)N1Cc1ccc(-c2ccc(F)cc2)cc1 (stereo unspecified),"inconclusive [cytotoxic, single point]",
Cc1ccc(CS(=O)(=O)c2ncc(Cl)c(C(=O)Nc3nnc(C(C)C)s3)n2)cc1,active: 20.6 µM,
COc1ccc(N(CC(=O)Nc2cccnc2)S(=O)(=O)c2ccccc2)cc1Cl,inactive,
CC1(C)C(=O)C2(CCCCC2)C(=O)OC1c1ccc(O)cc1 (stereo unspecified),"inconclusive [cytotoxic, single point]",
CCOC(=O)COc1ccc(Br)cc1/C=C/c1[nH]c(=O)[nH]c(=O)c1[N+](=O)[O-],active: 18.4 µM,
N#Cc1cc(C(=O)c2cc(Br)ccc2O)cn(C2CCCCC2)c1=O,inactive,
Cn1cnc([N+](=O)[O-])c1S(=O)(=O)c1ccc(Cl)cc1,active: 9.2 µM,
Cc1cc(N2CCCC2)ccc1/C=N/n1cnnc1,"inconclusive [cytotoxic, single point]",
O=C(NCCCCc1ccccc1)C1CC(c2ccc([N+](=O)[O-])cc2)=NO1 (stereo unspecified),"inconclusive [cytotoxic, partial curve]",
Cc1cc(C(=O)N2CCCC2(C)C(=O)NCC(C)C)nn1C(C)(C)C (stereo unspecified),inactive,
CCN(CC)S(=O)(=O)c1ccc2[nH]cc(C(=O)NCCC3=CCCCC3)c(=O)c2c1,"inconclusive [cytotoxic, partial curve]",
Fc1cc2nccnc2cc1N1CCSCC1,inactive,
CCc1nc(SCC(=O)Nc2ccc([N+](=O)[O-])cc2)n[nH]1,,inconclusive: -30.5% [cytotoxic]
CC(=O)OC1CC(C)N(C(=O)c2ccccc2)c2ccc(C)cc21 (stereo unspecified),inactive,
COc1ccc(C(=O)n2cc(C(C)=O)c3ccccc32)cc1,"inconclusive [cytotoxic, partial curve]",
CC1CCCCC1NC(=O)/C(C#N)=C/C=C/c1ccccc1[N+](=O)[O-] (stereo unspecified),"inconclusive [cytotoxic, full curve]",

Compound,Potency,"activity, negative = less viability"
O=c1[nH]c(CN2CCN(c3ccc(O)cc3)CC2)nc2scc(-c3ccc(Cl)cc3)c12,"inconclusive [cytotoxic, partial curve]",
CCOc1ccc2nc(NC(=O)c3cccc(-c4cc5ccccc5oc4=O)c3)sc2c1,active: 13 µM,
CCOc1ccc(C(C)NC(=S)NC2CCCCC2)cc1 (stereo unspecified),"inconclusive [cytotoxic, single point]",
Cc1ccc(C(=O)Nc2nc(=O)n(C(=O)c3ccccc3C)s2)cc1,"inconclusive [cytotoxic, single point]",
CC(=O)NC1=NN(C(C)=O)C(C)(c2ccc(Br)cc2)S1 (stereo unspecified),"inconclusive [cytotoxic, single point]",
c1ccc(NNC2=NCCCCC2)cc1,"inconclusive [cytotoxic, full curve]",
CN1CCc2cc3c(c4c2C1CC41CCC(=NO)CC1)OCO3 (stereo unspecified),inactive,
CCn1c(=O)c(C(=O)NCCN2CCCCC2)c(O)c2ccccc21,"inconclusive [cytotoxic, partial curve]",
CCOC(=O)Nc1ccc2c(COC(=O)CN(C)S(=O)(=O)c3ccc(C)cc3)cc(=O)oc2c1,"inconclusive [cytotoxic, partial curve]",
CC(NC(=O)CSc1ccccc1C(=O)O)C1CC2CCC1C2 (stereo unspecified),inactive,
CCOC(=O)C1CCN(C(=O)c2c(C)oc3c2C(=O)c2ccccc2C3=O)CC1,inactive,
CCN(c1ccc(OC)cc1)S(=O)(=O)c1ccc(-c2cc(C)no2)s1,"inconclusive [cytotoxic, single point]",
CCC(=O)Oc1ccc(C(=O)Nc2ccc3c(c2)C(=O)N(C2CCCCC2)C3=O)cc1,"inconclusive [cytotoxic, single point]",
C=CCC[C@@H](Cc1ccc(F)cc1)C(=O)OC[C@@H]1CCCN1C(=O)[C@@H](CC=C)CC(=O)N(CCO)Cc1ccccc1,"inconclusive [cytotoxic, single point]",
Fc1ccc(CNc2ccn3nc(-c4ccccc4)cc3n2)cc1,"inconclusive [cytotoxic, single point]",
Cc1ccc(CC(=O)NO)cc1,inactive,
O=c1cc(Nc2ccc3c(c2)OCCO3)[nH]c(=O)n1-c1ccc(Br)cc1,"inconclusive [cytotoxic, single point]",
OCC1OC(n2cnc3c(N4CCCC4)ncnc32)C(O)C1O (stereo unspecified),"inconclusive [cytotoxic, partial curve]",
O=C(c1cc(F)ccc1F)C1CCCN(C(=O)CCc2cnccn2)C1 (stereo unspecified),inactive,
COCc1ccc(C(=O)NC2CCCc3c2cnn3-c2ccc(C)c(C)c2)o1 (stereo unspecified),"inconclusive [cytotoxic, single point]",
COC(=O)c1ccc(/C=C/C(=O)c2ccc(OC)c(OC)c2)cc1,"inconclusive [cytotoxic, single point]",
COc1ccc(CN2C(=O)C(CC(C)C)Nc3ncnc(N4CCCCC4)c32)cc1 (stereo unspecified),inactive,
CCOc1cc(/C=C(/C#N)C(=O)Nc2ccc(O)cc2)cc(Br)c1O,active: 1.84 µM,
